Test results published in publication PMC12061266.
Results are given in words; binding and its absence hold for the method and conditions named. In cells and extracts the contact can be indirect. Some results given as binding are weak or reduced against the parent protein; the word gives no strength. For part of these data: Where a sequence is shown, tags or fusion partners need not be part of it.

T1: Flag-TRAF3IP3 (wild-type TRAF3IP3) (human) (UniProt Q9Y228)
T1 sequence: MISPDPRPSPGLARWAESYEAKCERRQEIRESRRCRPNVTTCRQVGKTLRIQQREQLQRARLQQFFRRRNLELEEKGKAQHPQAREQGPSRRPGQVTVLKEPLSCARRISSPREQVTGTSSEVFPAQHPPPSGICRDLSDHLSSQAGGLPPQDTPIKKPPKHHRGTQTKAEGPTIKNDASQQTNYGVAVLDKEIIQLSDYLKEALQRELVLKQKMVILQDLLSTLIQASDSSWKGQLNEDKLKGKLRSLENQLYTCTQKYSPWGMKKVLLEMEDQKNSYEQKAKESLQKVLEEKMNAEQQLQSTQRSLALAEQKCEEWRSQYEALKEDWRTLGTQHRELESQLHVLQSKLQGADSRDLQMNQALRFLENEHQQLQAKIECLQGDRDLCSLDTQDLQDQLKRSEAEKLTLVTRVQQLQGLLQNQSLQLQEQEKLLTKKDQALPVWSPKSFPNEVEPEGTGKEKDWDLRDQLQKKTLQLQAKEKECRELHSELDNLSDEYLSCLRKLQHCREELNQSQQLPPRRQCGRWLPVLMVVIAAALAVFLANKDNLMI

T2: Flag-TRAF3IP3 deletion truncation 236-450 (human) (UniProt Q9Y228)
T2 sequence: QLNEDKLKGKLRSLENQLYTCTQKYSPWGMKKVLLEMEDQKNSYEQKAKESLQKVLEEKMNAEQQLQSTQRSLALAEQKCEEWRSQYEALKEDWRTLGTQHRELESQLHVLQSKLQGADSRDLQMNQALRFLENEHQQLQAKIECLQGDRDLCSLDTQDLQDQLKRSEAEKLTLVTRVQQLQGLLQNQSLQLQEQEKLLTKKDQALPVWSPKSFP

T3: Flag-TRAF3IP3 deletion truncation 1-235 (human) (UniProt Q9Y228)
T3 sequence: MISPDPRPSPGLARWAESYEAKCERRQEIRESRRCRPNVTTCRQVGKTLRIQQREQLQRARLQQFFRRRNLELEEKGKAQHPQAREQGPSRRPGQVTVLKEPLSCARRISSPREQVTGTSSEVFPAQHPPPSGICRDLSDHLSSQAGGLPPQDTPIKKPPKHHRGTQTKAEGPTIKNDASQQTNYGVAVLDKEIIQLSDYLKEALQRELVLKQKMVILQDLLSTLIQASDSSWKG

T4: Flag-TRAF3IP3 deletion truncation 521-551 (transmembrane domain) (human) (UniProt Q9Y228)
T4 sequence: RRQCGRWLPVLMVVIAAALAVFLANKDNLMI

T5: Flag-TRAF3IP3 deletion truncation 451-520 (human) (UniProt Q9Y228)
T5 sequence: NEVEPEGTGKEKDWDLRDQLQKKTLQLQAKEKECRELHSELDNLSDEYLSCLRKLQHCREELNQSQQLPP

T6: endogenous TRAF3IP3 (human (endogenous in A549, PC9, H1299)) (UniProt Q9Y228)
T6 sequence: T1 sequence

B1: HA-STRN3 (protein, UniProt Q13033 1-797)
chain: MDELAGGGGGGPGMAAPPRQQQGPGGNLGLSPGGNGAAGGGGPPASEGAGPAAGPELSRPQQYTIPGILHYIQHEWARFEMERAHWEVERAELQARIAFLQGERKGQENLKKDLVRRIKMLEYALKQERAKYHKLKYGTELNQGDLKMPTFESEETKDTEAPTAPQNSQLTWKQGRQLLRQYLQEVGYTDTILDVRSQRVRSLLGLSNSEPNGSVETKNLEQILNGGESPKQKGQEIKRSSGDVLETFNFLENADDSDEDEENDMIEGIPEGKDKHRMNKHKIGNEGLAADLTDDPDTEEALKEFDFLVTAEDGEGAGEARSSGDGTEWDKDDLSPTAEVWDVDQGLISKLKEQYKKERKGKKGVKRANRTKLYDMIADLGDDELPHIPSGIINQSRSASTRMTDHEGARAEEAEPITFPSGGGKSFIMGSDDVLLSVLGLGDLADLTVTNDADYSYDLPANKDAFRKTWNPKYTLRSHFDGVRALAFHPVEPVLVTASEDHTLKLWNLQKTVPAKKSASLDVEPIYTFRAHIGPVLSLAISSNGEQCFSGGIDATIQWWNMPSPSVDPYDTYEPNVLAGTLVGHTDAVWGLAYSGIKNQLLSCSADGTVRLWNPQEKLPCICTYNGDKKHGIPTSVDFIGCDPAHMVTSFNTGSAVIYDLETSQSLVILSSQVDSGLQSNNHINRVVSHPTLPVTITAHEDRHIKFFDNKTGKMIHSMVAHLDAVTSLAVDPNGIYLMSGSHDCSIRLWNLDSKTCVQEITAHRKKLDESIYDVAFHSSKAYIASAGADALAKVFV
B2: endogenous STRN3 (protein, UniProt Q13033 1-797)
chain: B1 chain

Assays:
[1] = biological target: T1, Flag-TRAF3IP3 (wild-type TRAF3IP3) (human); experiment: co-IP; 293T cells co-transfected with Flag-TRAF3IP3 (wild type or truncations) and HA-STRN3, 48 h; RIPA lysis; anti-Flag or anti-HA overnight at 4 °C, Dynabeads protein G; also after thapsigargin (more binding) or 4-PBA (less binding) treatment of the cells
[2] = biological target: T2, Flag-TRAF3IP3 deletion truncation 236-450 (human); experiment: as above
[3] = biological target: T3, Flag-TRAF3IP3 deletion truncation 1-235 (human); experiment: as above
[4] = biological target: T4, Flag-TRAF3IP3 deletion truncation 521-551 (transmembrane domain) (human); experiment: as above
[5] = biological target: T5, Flag-TRAF3IP3 deletion truncation 451-520 (human); experiment: as above
[6] = biological target: T6, endogenous TRAF3IP3 (human (endogenous in A549, PC9, H1299)); experiment: co-IP; endogenous proteins, A549, PC9 and H1299 cell lysates

Binder | binding [1] | binding [2] | binding [3] | binding [4] | binding [5] | binding [6]
B1 | binds | binds | binds | binds | no binding | –
B2 | – | – | – | – | – | binds
